Laboratory results as given in the supplement of paper PMC8728848.
The list shows a part of the results.

Columns and labels:
Assay in all cases: glycan array binding signal (z-score within array); higher = stronger binding
Details in all cases: glycan notation: IUPAC condensed, linker removed; mutation: D22R
[1] = target: Neu5Ac(a2-6)GlcNAc(b1-4)GlcNAc
How it was run: (§1)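 Glycan array binding is given as a within-array Z-score, which can be read as non-binding when negative. The arrays, 3228 of them, came from the Consortium for Functional Glycomics database and were retained only where the protein sequence was available. Z-scores were averaged across arrays of the same protein sequence at different concentrations or buffers and across linkers.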

[2] = target: Neu5Ac(a2-6)GlcNAc(b1-4)GlcNAc(b1-4)GlcNAc
How it was run: as §1

Neu5Ac(a2-8)Neu5Ac = target: Neu5Ac(a2-8)Neu5Ac
How it was run: as §1

[3] = target: Neu5Ac(a2-8)Neu5Ac(a2-3)Gal(b1-3)GalNAc(b1-4)[Neu5Ac(a2-3)]Gal(b1-4)Glc
How it was run: as §1

[4] = target: Neu5Ac(a2-8)Neu5Ac(a2-3)Gal(b1-3)GalNAc(b1-4)[Neu5Ac(a2-8)Neu5Ac(a2-3)]Gal(b1-4)Glc
How it was run: as §1

[5] = target: Neu5Ac(a2-8)Neu5Ac(a2-3)Gal(b1-4)Glc
How it was run: as §1

[6] = target: Neu5Ac(a2-8)Neu5Ac(a2-3)Gal(b1-4)GlcNAc
How it was run: as §1

[7] = target: Neu5Ac(a2-8)Neu5Ac(a2-3)[Gal(b1-3)GalNAc(b1-4)]Gal(b1-4)Glc
How it was run: as §1

[8] = target: Neu5Ac(a2-8)Neu5Ac(a2-3)[GalNAc(b1-4)]Gal(b1-4)Glc
How it was run: as §1

[9] = target: Neu5Ac(a2-8)Neu5Ac(a2-8)Neu5Ac
How it was run: as §1

[10] = target: Neu5Ac(a2-8)Neu5Ac(a2-8)Neu5Ac(a2-3)Gal(b1-4)Glc
How it was run: as §1

[11] = target: Neu5Ac(a2-8)Neu5Ac(a2-8)Neu5Ac(a2-3)[Gal(b1-3)GalNAc(b1-4)]Gal(b1-4)Glc
How it was run: as §1

[12] = target: Neu5Ac(a2-8)Neu5Ac(a2-8)Neu5Ac(a2-3)[GalNAc(b1-4)]Gal(b1-4)Glc
How it was run: as §1

[13] = target: Neu5Ac(a2-8)Neu5Ac(a2-8)Neu5Ac(a2-8)Neu5Ac(a2-3)[GalNAc(b1-4)]Gal(b1-4)Glc
How it was run: as §1

[14] = target: Neu5Ac(a2-8)Neu5Gc(a2-3)Gal(b1-4)GlcNAc
How it was run: as §1

[15] = target: Neu5Ac(b2-6)Gal(b1-4)GlcNAc
How it was run: as §1

Neu5Ac(b2-6)GalNAc = target: Neu5Ac(b2-6)GalNAc
How it was run: as §1

[16] = target: Neu5Ac9Ac(a2-3)Gal(b1-3)GlcNAc
How it was run: as §1

[17] = target: Neu5Ac9Ac(a2-3)Gal(b1-4)GlcNAc
How it was run: as §1

[18] = target: Neu5Ac9Ac(a2-6)Gal(b1-4)GlcNAc
How it was run: as §1

[19] = target: Neu5Gc(a2-3)Gal(b1-3)GlcNAc
How it was run: as §1

[20] = target: Neu5Gc(a2-3)Gal(b1-3)[Fuc(a1-4)]GlcNAc
How it was run: as §1

Neu5Gc(a2-3)Gal(b1-4)Glc = target: Neu5Gc(a2-3)Gal(b1-4)Glc
How it was run: as §1

[21] = target: Neu5Gc(a2-3)Gal(b1-4)GlcNAc
How it was run: as §1

[22] = target: Neu5Gc(a2-3)Gal(b1-4)GlcNAc(b1-3)Gal(b1-4)GlcNAc(b1-2)Man(a1-3)[Neu5Gc(a2-3)Gal(b1-4)GlcNAc(b1-3)Gal(b1-4)GlcNAc(b1-2)Man(a1-6)]Man(b1-4)GlcNAc(b1-4)GlcNAc
How it was run: as §1

[23] = target: Neu5Gc(a2-3)Gal(b1-4)[Fuc(a1-3)]GlcNAc
How it was run: as §1

[24] = target: Neu5Gc(a2-6)Gal(b1-4)GlcNAc
How it was run: as §1

Neu5Gc(a2-6)GalNAc = target: Neu5Gc(a2-6)GalNAc
How it was run: as §1

[25] = target: Neu5Gc(a2-8)Neu5Ac(a2-3)Gal(b1-4)GlcNAc
How it was run: as §1

[26] = target: Neu5Gc(a2-8)Neu5Gc(a2-3)Gal(b1-4)GlcNAc
How it was run: as §1

[27] = target: Neu5Gc(a2-8)Neu5Gc(a2-3)Gal(b1-4)GlcNAc(b1-3)Gal(b1-4)GlcNAc
How it was run: as §1

[28] = target: Neu5Gc(a2-8)Neu5Gc(a2-6)Gal(b1-4)GlcNAc
How it was run: as §1

[29] = target: Neu5Gc(b2-6)Gal(b1-4)GlcNAc
How it was run: as §1

B1: MpL2 (Macrolepiota procera) (protein)
chain: MSTQVSSGQTYKITNVKAGTVIRLSGEDNKSIIGYPYHSGKNQQWTFNWTGKAWTLRSASSGSYLGIEGTPADGTRLVAVNDPFEWHIWRDEANENAFRIFVPFTNYNLDLSGYGDTTPGTPVQLWWTWEGLHQTWTIDRP
In the case of B1, the “glycan array binding signal (z-score)” value [1] is reported as 0.636, the “glycan array binding signal (z-score)” value [2] is reported as -0.853 and the “glycan array binding signal (z-score)” value (Neu5Ac(a2-8)Neu5Ac) is reported as -0.611. For the same binder, the “glycan array binding signal (z-score)” value [3] was -0.101, the “glycan array binding signal (z-score)” value [4] was -0.298 and the “glycan array binding signal (z-score)” value [5] was -0.102. The “glycan array binding signal (z-score)” value [6] was -1.21, the “glycan array binding signal (z-score)” value [7] was -0.153 and the “glycan array binding signal (z-score)” value [8] was 0.053. The “glycan array binding signal (z-score)” value [9] was 0.075, the “glycan array binding signal (z-score)” value [10] was -0.152 and the “glycan array binding signal (z-score)” value [11] was 0.517. For the same binder, the “glycan array binding signal (z-score)” value [12] was 0.163, the “glycan array binding signal (z-score)” value [13] was -0.004 and the “glycan array binding signal (z-score)” value [14] was -1.01. For the same binder, the “glycan array binding signal (z-score)” value [15] was 0.011, the “glycan array binding signal (z-score)” value (Neu5Ac(b2-6)GalNAc) was -0.124 and the “glycan array binding signal (z-score)” value [16] was -0.859. The “glycan array binding signal (z-score)” value [17] was 0.478, the “glycan array binding signal (z-score)” value [18] was -0.333 and the “glycan array binding signal (z-score)” value [19] was -0.233. The “glycan array binding signal (z-score)” value [20] was -0.159, the “glycan array binding signal (z-score)” value (Neu5Gc(a2-3)Gal(b1-4)Glc) was -0.886 and the “glycan array binding signal (z-score)” value [21] was -0.338. The “glycan array binding signal (z-score)” value [22] was -0.147, the “glycan array binding signal (z-score)” value [23] was -0.389 and the “glycan array binding signal (z-score)” value [24] was -0.104. The “glycan array binding signal (z-score)” value (Neu5Gc(a2-6)GalNAc) was -0.346, the “glycan array binding signal (z-score)” value [25] was -0.33 and the “glycan array binding signal (z-score)” value [26] was -0.087. The “glycan array binding signal (z-score)” value [27] was -1.02, the “glycan array binding signal (z-score)” value [28] was 0.002 and the “glycan array binding signal (z-score)” value [29] was -0.151.
